Laboratory results taken from PMC4336329 (PLoS ONE, 2015).
Hit rate of the full screen: of about 310,000 compounds, about 14,000 (4.5%) showed an effect of 50% or more. The effect is printed as a negative number. This is one part of the list.

These molecules were tested against human ether-à-go-go-related gene (hERG) potassium channel (human, UniProt Q12809) (assay: primary screen, population patch clamp on CHO cells stably expressing hERG).
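Note: peak tail current of the secondary pulse compared with the same well before compound.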

Sequence of human ether-à-go-go-related gene (hERG) potassium channel (Q12809 whole entry, looked up): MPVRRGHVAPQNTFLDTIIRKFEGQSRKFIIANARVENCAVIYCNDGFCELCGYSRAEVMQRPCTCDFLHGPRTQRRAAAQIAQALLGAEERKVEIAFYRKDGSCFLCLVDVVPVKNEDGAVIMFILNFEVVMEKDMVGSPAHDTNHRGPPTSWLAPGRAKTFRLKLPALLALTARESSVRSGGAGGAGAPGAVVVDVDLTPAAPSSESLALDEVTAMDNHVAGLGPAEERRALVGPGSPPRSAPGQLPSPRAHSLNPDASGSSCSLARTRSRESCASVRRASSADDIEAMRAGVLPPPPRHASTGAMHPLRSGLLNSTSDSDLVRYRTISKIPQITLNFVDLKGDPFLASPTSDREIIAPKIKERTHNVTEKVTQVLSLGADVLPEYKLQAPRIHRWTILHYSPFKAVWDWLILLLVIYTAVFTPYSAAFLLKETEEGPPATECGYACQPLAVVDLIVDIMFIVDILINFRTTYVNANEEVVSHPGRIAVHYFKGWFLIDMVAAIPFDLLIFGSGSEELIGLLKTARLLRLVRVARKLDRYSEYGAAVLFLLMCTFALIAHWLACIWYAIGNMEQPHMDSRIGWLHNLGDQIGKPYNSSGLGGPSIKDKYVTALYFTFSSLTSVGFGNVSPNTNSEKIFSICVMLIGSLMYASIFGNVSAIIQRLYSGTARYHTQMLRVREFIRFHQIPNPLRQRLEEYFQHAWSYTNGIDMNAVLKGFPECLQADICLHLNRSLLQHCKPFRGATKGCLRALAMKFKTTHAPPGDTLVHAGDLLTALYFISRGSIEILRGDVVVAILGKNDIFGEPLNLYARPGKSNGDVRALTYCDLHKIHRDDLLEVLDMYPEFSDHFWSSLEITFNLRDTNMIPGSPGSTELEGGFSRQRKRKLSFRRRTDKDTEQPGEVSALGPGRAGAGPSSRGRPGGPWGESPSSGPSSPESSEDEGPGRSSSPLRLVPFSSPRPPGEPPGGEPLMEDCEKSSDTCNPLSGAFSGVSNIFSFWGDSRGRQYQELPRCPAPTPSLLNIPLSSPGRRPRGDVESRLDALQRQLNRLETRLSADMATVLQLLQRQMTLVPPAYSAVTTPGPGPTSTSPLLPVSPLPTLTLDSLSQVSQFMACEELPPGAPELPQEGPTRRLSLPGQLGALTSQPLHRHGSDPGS

| SMILES | hERG current change (%, negative = inhibition) at 10uM [%] |
| --- | --- |
| CNC(=O)C(=O)NCCC1CCCCN1S(=O)(=O)c1cccs1 (stereo not shown) | 8.93 |
| N#CC(c1cccc(Cl)c1)c1ncc(C(F)(F)F)cc1Cl (stereo not shown) | 1.1 |
| COc1ccc(NC(=O)CN2C(=O)NC(C)(c3ccc(C)cc3)C2=O)cn1 (stereo not shown) | -0.713 |
| N#Cc1ccccc1COC(=O)CCCC1=NS(=O)(=O)c2ccccc2N1 | -6.01 |
| O=C1CCC(c2ccccc2)=NN1 | 9.05 |
| Cc1cc(NC(=O)CSc2nnc(Cc3ccccc3)n2C)no1 | -7.24 |
| COc1ccccc1C(=O)NC(=S)N1CCCc2ccccc21 | -31.1 |
| COc1cc(C2NC(=O)CCC2[N+](=O)[O-])cc(Br)c1OC (stereo not shown) | 13 |
| C=CCOc1ccc(CN(C)CC(O)COc2cccc3ccccc23)cc1 (stereo not shown) | -23.2 |
| CCC(CO)N=CC1=C(O)CC(C)(C)CC1=O (stereo not shown) | 14.8 |
| COCCNC(=O)C(c1ccc(Cl)cc1)N(C(=O)Cn1nnc2ccccc21)c1cccnc1 (stereo not shown) | 4.57 |
| O=C(O)CCC(=O)c1ccc2c(c1)CCCC2 | 10.8 |
| COc1ccccc1NC(=O)CSc1nnc(CC(=O)Nc2cccc(C(F)(F)F)c2)n1C | 3.57 |
| CCNC(=O)CC1C(=O)N(c2ccccc2)C(=O)N1CCc1ccc(OC)c(OC)c1 (stereo not shown) | 17.5 |
| Cc1noc(NS(=O)(=O)c2ccc(N3C(=O)c4ccccc4C3=O)cc2)c1C | 14.5 |
| Cc1cc([N+](=O)[O-])nn1CC(=O)NNC(=S)Nc1ccc([N+](=O)[O-])cc1 | 11 |
| CC(=O)Nc1ccc(C(=O)Nc2ccc3c(c2)OCO3)cc1 | -4.62 |
| Cc1ccc2nc(-c3ccc(NC(=S)NC(=O)C(C)C)cc3)sc2c1 | 2.52 |
| O=C1C=C(NCCN2CCOCC2)C(=O)c2cnccc21 | 4.18 |
| CCCOc1ccc(NC(=O)CC2C(=O)N(c3ccc(OCC)cc3)C(=S)N2C2CC2)cc1 (stereo not shown) | -3.76 |
| Cc1nn(CCOc2ccccc2Cl)c(C)c1[N+](=O)[O-] | 14.1 |
| Cc1ccc(-n2nc3c(c2NC(=O)CCC2CCCCC2)CS(=O)C3)cc1 (stereo not shown) | -18.3 |
| CCOc1ccccc1NC(=O)C(NC(=O)C1CCC(C)CC1)C(C)C (stereo not shown) | -8.76 |

| SMILES | hERG current change (%, negative = inhibition) at 10uM [%] |
| --- | --- |
| Oc1cccc(/C=N/n2c(C3CCCCC3)n[nH]c2=S)c1 | 14.1 |
| C#CC(C)(CC)NC(=O)c1cc2nc(C3CC3)cc(C(F)(F)F)n2n1 (stereo not shown) | -3.12 |
| O=C(CSc1nc2nc3c(cc2c(=O)n1-c1ccccc1)CCCC3)Nc1cccc2ccccc12 | -20.7 |
| COC(=O)c1cc2c(ccn2-c2ccc(F)cc2)n1C(C)C | -8.54 |
| Cc1cc(C(=O)Nc2nncs2)oc1C | 10.5 |
| CC(=O)c1cccc(NC2=NCC(C)S2)c1 (stereo not shown) | 3.47 |
| N#C/C(=C(/O)CN1C(=O)c2ccccc2C1=O)c1nc2ccccc2[nH]1 | 11.6 |
| CCn1c(SCC(=O)Nc2ccc3c(c2)OCO3)nnc1C1CC1 | 2.87 |
| NNC(=O)CCCCCCCCCCOCCCCO | 6.09 |
| C[N+]1(CCOC(=O)C2(c3ccccc3)CCCC2)CCCCC1 | 4.33 |
| Cc1ccc(NC(=O)CCn2c(=S)oc3ccccc32)cc1 | 1.97 |
| COc1ccccc1NC(=O)Nc1nc(CC(=O)N2CCN(c3ccc(F)cc3)CC2)cs1 | 12.4 |
| Oc1ccc(Cn2ccnc2)c2cccnc12 | -10.6 |
| CC(C)(C)NC(=O)C(c1c[nH]c2ccccc12)N(C(=O)Cn1nnc(-c2ccc(F)cc2)n1)c1cccc(O)c1 (stereo not shown) | -6.27 |
| Cc1cc(C)c(C#N)c(OCC(=O)c2ccccc2)n1 | -14.2 |
| O=C(CC1(O)C(=O)N(Cc2ccccc2)c2ccccc21)c1ccncc1 (stereo not shown) | 9.19 |
| CCN(CC)S(=O)(=O)c1ccc(N(C)CCc2ccc(OC)c(OC)c2)nc1 | -0.553 |
| COC(=O)CC1COc2ccccc2N1S(=O)(=O)c1ccc(OC)cc1 (stereo not shown) | -3.22 |
| Brc1ccc(-c2ncc(-c3ccccc3)cn2)cc1 | 12.8 |
| CC1(C)N=C(SCC(=O)Nc2ccc(Cl)cc2)C(c2ccc(Cl)cc2)=N1 | -0.481 |
| CCCOC(=O)c1c(-c2ccc(OC)cc2)oc2ccc(-c3ccc(OC)nc3)cc12 | 22.4 |
| COC(=O)c1sccc1NC(=S)N1C(C)CCCC1C (stereo not shown) | -7.4 |
| COc1ccc(-c2nnc(NC(=O)CSc3ccc(C)cc3)s2)cc1OC | -2.12 |

| SMILES | hERG current change (%, negative = inhibition) at 10uM [%] |
| --- | --- |
| CCOc1ccc(C2C(C(=O)O)c3ccccc3C(=O)N2CCN2CCOCC2)cc1 (stereo not shown) | 25.4 |
| O=C(c1ccccc1)c1c[nH]c2cc3c(cc2c1=O)OCCO3 | 0.662 |
| CN1C(=O)C(C)(C)c2cc(S(=O)(=O)NCC(=O)NCc3ccccc3)ccc21 | 7.72 |
| CCOC(=O)C1CCN(C(=O)CCCn2c(=O)c3cccn3c3cccnc32)CC1 | -50 |
| CO/N=C/C(c1ncc(C(F)(F)F)cc1Cl)S(=O)(=O)c1ccccc1 (stereo not shown) | 5.89 |
| CC(C)C(NC(=O)c1ccc(F)cc1)C(=O)N1CCC1 (stereo not shown) | 9.27 |
| COc1ccc(OC)c(NC(=O)CN2C(=O)NC3(CCOc4ccccc43)C2=O)c1 (stereo not shown) | -2.22 |
| CCCCS(=O)(=O)C1CCS(=O)(=O)C1 (stereo not shown) | 2.16 |
| CN(Cc1ccc(OC(F)F)cc1)Cc1nc2c(Br)cc(Br)cc2c(=O)[nH]1 | -5.29 |
| N/C(=N\OC(=O)c1ccc(Cl)cc1)c1cccnc1 | -17.7 |
| CN(CC(=O)N1CCc2ccccc2C1)S(=O)(=O)c1ccc2c(c1)c(=O)n(C)c(=O)n2C | -15.6 |
| Cl.O=C(Cn1c(NCCCO)nc2ccccc21)c1ccc(Cl)cc1Cl | -43.9 |
| CC1(C)Cc2c(sc(NC(=O)C(=O)N3CCOCC3)c2C(N)=O)CO1 | 10.2 |
| CC(C)(C)N1C(=O)Cc2c1nc(N)c1c(N)nc(N3CCCCC3CO)c(C#N)c21 (stereo not shown) | -24.3 |
| CCCCn1c(=O)n(C)c(=O)c2c(C(F)(F)F)cc(-c3ccncc3)nc21 | -28 |
| CCCCn1c(N)c(N(Cc2ccccc2OC)C(=O)c2c(CC)noc2C)c(=O)[nH]c1=O | 10.6 |
| Cc1ccc(S(=O)(=O)NC(=O)NC(=O)N(C)S(=O)(=O)c2ccc(C)cc2)cc1 | 12.7 |
| c1ccc(Nc2nc3ccccc3s2)cc1 | 15.7 |
| Cl.OC(COCC1COc2ccccc2O1)CN1CCN(c2ccccc2)CC1 (stereo not shown) | -64.1 |
| CC(C)c1ccc2[nH]c(O)c(N=NC(=O)c3cccc(S(=O)(=O)Nc4cccc(Cl)c4)c3)c2c1 | 5.55 |
| Cc1ccc(Nc2ccc(C(=O)NC3CCCCC3)cn2)cc1 | 7.98 |
| O=C(NCc1ccccc1)c1nnc(CS(=O)(=O)c2ccccc2)o1 | -9.74 |
| COCCNC(=S)NC1CC2CCCC(C1)N2Cc1ccco1 (stereo not shown) | -12.6 |

| SMILES | hERG current change (%, negative = inhibition) at 10uM [%] |
| --- | --- |
| Cc1ccc(-n2ncc3c(=O)n(CC(=O)N4CCN(c5ccccc5F)CC4)cnc32)cc1C | 18 |
| O=C(NC1CCN(Cc2ccc(Cl)cc2)CC1)c1cn(-c2ccccc2)nc1-c1cccnc1 | -75.1 |
| O=C(Cc1ccc(F)cc1)N1CCC(CC2CC(c3ccc(Cl)cc3)=NO2)(C(=O)NCC2CCCCC2)CC1 (stereo not shown) | -72.3 |
| O=C(O)c1ccccc1SCc1nc2ccccn2c1Br | 16.1 |
| CCCCOC(=O)Nc1cccc(C(C)=O)c1 | -6.02 |
| CN(C)C(=O)N(CCCN1CCOCC1)Cc1cccc2ccccc12 | 5.1 |
| Cn1nnnc1SCC(=O)NC1CCCCC1 | 7.6 |
| O=C(C[n+]1ccncc1)c1ccccc1.[Br-] | 13 |
| CNc1cc(Cl)nc(SC)n1 | 20.6 |
| CC/C=C/C(=O)N1CC2(CC(c3cccc(NC(=O)c4ccccc4)c3)=NO2)C[C@@H]1C(N)=O (stereo partly shown) | 8.65 |
| CC1CCCCN1C(=O)COc1ccc(NC(=O)c2ccco2)cc1 (stereo not shown) | 2.31 |
| C=CCN=C(NC#N)SC | 20.8 |
| COc1nc(OC)nc(N(C)CCO)n1 | 5.64 |
| Cn1c(=O)c2c(ncn2CC(=O)OCc2ccccc2)n(C)c1=O | -6.21 |
| COc1nc(Nc2ccc(OC)c(Cl)c2)nc(OC)n1 | 9.14 |
| Cc1ccc(C)n1-c1ccc(C#N)cn1 | 3.89 |
| CCCCCC(=O)NNC(=O)c1ccc(-c2ccccc2)cc1 | 3.38 |
| Nc1nnc(SCC(=O)Nc2ccc(N3CCOCC3)cc2)s1 | -3.83 |
| CN(C)/N=C/c1cn(-c2ccccc2)nc1-c1cccnc1 | -15.9 |
| C=CCC(c1ccccc1)N(C(C)=O)c1ccco1 (stereo not shown) | 7.57 |
| COc1ccccc1CN1CCNC(=O)C1CC(=O)NCc1csc(C)n1 (stereo not shown) | 12.1 |
| COC(=O)c1ccc(NC(=O)CCc2nnc3ccc(NCc4ccco4)nn23)cc1 | 18.4 |
